# Assay results as given in PubChem BioAssay AID1240 (Sanford-Burnham Center for Chemical Genomics, 2008).
# Among all 50,000 compounds or so, about 800 (1.6%) showed an effect of 50% or more. The list shows a part of the results.
# Target: Bcl-2-like protein 10 (Homo sapiens) (UniProt Q9HD36)
# Experiment: Phenotype converters, Bcl-B/TR3 peptide binding displacement, primary biochemical FP (AID 1240);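 note: 0% = Bcl-B with tracer peptide and DMSO and 100% = tracer peptide lacking Bcl-B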
# Conditions: GST-Bcl-B / FITC-TR3 peptide fluorescence polarization; stronger effect = higher value; compound at 3.75 mg/L
# Sequence of UniProt Q9HD36 (Q9HD36 whole entry, looked up): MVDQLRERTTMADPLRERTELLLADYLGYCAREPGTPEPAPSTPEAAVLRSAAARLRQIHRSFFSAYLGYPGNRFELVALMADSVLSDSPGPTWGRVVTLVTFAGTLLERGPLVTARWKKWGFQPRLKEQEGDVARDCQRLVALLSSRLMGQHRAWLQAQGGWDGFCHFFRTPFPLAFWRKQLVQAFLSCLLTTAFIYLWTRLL
row,SMILES,displacement
1,CCOC(=O)c1c(NC(=O)Cc2cccs2)sc(C(=O)Nc2ccccc2F)c1C,39%
2,CCOC(=O)C1CCN(CN2C(=O)C(=O)c3cc(Br)ccc32)CC1,0.8%
3,COc1cccc(NC(=O)/C=C(\C(=O)O)c2ccc(Cl)cc2)c1,-7%
4,CCOC(=O)C1=C(C)N=c2s/c(=C/c3ccc(C)cc3)c(=O)n2C1c1ccccc1 (stereo unspecified),2.5%
5,COc1ccc(C2CC(C(F)(F)F)n3nc(C(=O)Nc4cc(C(F)(F)F)ccc4Cl)c(Cl)c3N2)cc1OC (stereo unspecified),5.4%
6,COc1ccc(S(=O)(=O)N(CCc2ccccc2)CC(=O)Nc2ccc3c(c2)OCO3)cc1,14.5%
7,COc1cc(C(=O)Nc2ccc(N(C)C)cc2)c([N+](=O)[O-])cc1OC,12.2%
8,CN(C)c1ccc(P(=O)(c2ccc(N(C)C)cc2)c2ccc(N(C)C)cc2)cc1,20.4%
9,O=C(NCCOc1ccccc1F)c1ccc(CSc2ccc(Cl)cc2)cc1,-5%
10,COc1ccc(CNC(=O)c2cccc([N+](=O)[O-])c2)cc1,-7.5%
11,COC(=O)C1=C(C)N(C)C(C)=C(C(=O)OC)C1c1cccc(OCc2ccccc2)c1,10.8%
12,C(/C=C/c1ccco1)=N/N1CCN(c2ccccc2)CC1,1.1%
13,O=C(COc1ccc(-c2ccccc2)cc1)NCc1ccco1,6.6%
14,COc1ccccc1OCc1cc(C(=O)O)oc1C,9.4%
15,COc1ccc(N2C(=O)/C(=C\c3cc(OC)ccc3O)SC2=S)cc1,6.4%
16,CCOC(=O)c1ccc(-n2c(CN3C(=O)c4ccccc4C3=O)nc3ccccc3c2=O)cc1,13.8%
17,CCCOc1ccccc1C1CC(=O)Nc2c1ccc1ccccc21 (stereo unspecified),-7.2%
18,COc1cc(OC)cc(C(=O)N/N=C(\C)CC(=O)Nc2ccc(Br)cc2)c1,-1.4%
19,COc1cc(CNc2ccc(Br)cc2C)cc(OC)c1OC,13.2%
20,COc1ccc(NC(=O)c2nn3c(c2Br)NC(c2cccs2)CC3C(F)(F)F)cc1OC (stereo unspecified),-4.6%
21,COc1cc(C=NN2CCN(c3ccc(Cl)cc3)CC2)ccc1OCc1ccccc1,-15.6%
22,CN(C)CCOC(=O)C12CCC3CC(CC(C3)C1)C2,11.3%

row,SMILES,displacement
1,COc1ccc(C(NC(=O)Cc2ccccc2)NC(=O)Cc2ccccc2)cc1OC,2.8%
2,COC(=O)c1ccc(-c2ccc(C=C3C(=O)N(C)C(=O)N(C)C3=O)o2)cc1,8%
3,Fc1ccc(-c2nc(-c3ccc(C(F)(F)F)cc3)no2)cc1,-1.2%
4,CC(=O)c1ccc(NC(=O)c2ccc(-c3ccc(Cl)cc3Cl)o2)cc1,-1.3%
5,Cc1ccc(C(C)C)c(OCC(=O)N/N=C/c2ccncc2)c1,-32.2%
6,COc1ccc(CCNS(=O)(=O)c2ccccc2[N+](=O)[O-])cc1OC,-6.5%
7,COc1ccc(C(=O)Nc2ccccc2C(=O)NC2CCCCC2)cc1,1%
8,COc1ccc(CC2S/C(=N\N=C\c3ccc(O)cc3)NC2=O)cc1 (stereo unspecified),-19.1%
9,O=C(Nc1ccc(Cl)c(Cl)c1)Nc1nnc(Cc2ccccc2)s1,11%
10,CCCCOc1cccc(C(=O)Nc2ccc([N+](=O)[O-])cc2OC)c1,6.5%
11,COc1ccc(C(=O)C=C(Cl)Cl)cc1,1.2%
12,Cc1cccnc1N1C(=O)C2C3c4ccccc4C(c4ccccc43)C2C1=O (stereo unspecified),10.1%
13,CCOc1ccc(C2C(C(=O)OC)=C(C)NC(C)=C2C(=O)OC)cc1OC,-4.5%
14,COc1cc2c(cc1NS(=O)(=O)c1ccc3ccccc3c1)oc1ccccc12,37.9%
15,O=C(Nc1ncccc1Cl)C1CC1c1ccccc1 (stereo unspecified),-6%
16,O=C1C2C3c4ccccc4C(c4ccccc43)C2C(=O)N1Cc1ccc(F)cc1 (stereo unspecified),-11.9%
17,O=C(O)c1cccc(NS(=O)(=O)c2cccc(S(=O)(=O)c3ccc(Br)cc3)c2)c1,-5.9%
18,COc1ccc2c(c1)C1=NN(/C(C)=C/C(C)=O)C(c3ccc(F)cc3)C1CC2 (stereo unspecified),9.3%
19,COC(=O)C12CCC3(SCCS3)C(C(=O)OC)(CCC13SCCS3)C2,3.6%
20,COc1c(OC(C)=O)ccc(/C=N\NC(=O)COc2ccc(C)cc2)c1[N+](=O)[O-],9.4%
21,O=C(c1ccco1)N1CCN(C(=O)c2cccs2)CC1,-0.4%
22,O=C(/C=C/c1cccc(C(F)(F)F)c1)Nc1ccccc1Cl,7%

row,SMILES,displacement
1,COc1ccc(C(=O)Nc2ccccc2)cc1NC(=O)COc1ccc(F)cc1,2.3%
2,Cc1ccc(-c2cc(C(=O)NC(C)C)c3ccccc3n2)cc1,6.6%
3,COc1cccc(CN2CCN(C(=O)c3cccc(Cl)c3)CC2)c1,3.6%
4,O=CN1CCN(C(=O)c2ccc(C#Cc3ccccc3)cc2)CC1,-5.1%
5,Cc1cc(C)n(C(=O)CNC(=O)c2ccc(Cl)cc2)n1,15.9%
6,C=CCO/N=C(\CCC)C1=C(N2CCCC2)CC(C)(C)CC1=O,-1.5%
7,COc1cc(/C=C2/SC(=S)N(c3c(C)n(C)n(-c4ccccc4)c3=O)C2=O)c([N+](=O)[O-])cc1OC,61.3%
8,O=C(Nc1ccccc1C(=O)Nc1ccccc1)c1ccc(F)cc1,-7.3%
9,Cc1cc(C)cc(N(CC(=O)O)S(=O)(=O)c2ccccc2)c1,-0.2%
10,CC(C)C(NC(=O)C12CC3CC(CC(C3)C1)C2)C(=O)N/N=C/c1ccccc1C(F)(F)F (stereo unspecified),-11.3%
11,CC(=O)N1CCN(c2nc(OC(C(F)(F)F)C(F)(F)F)nc(N(c3ccccc3)c3ccccc3)n2)CC1,8.1%
12,O=C(Nc1ccc2c(c1)OCO2)c1ccc(C#CC2(O)CCCCC2)cc1,-1.9%
13,Cc1cccc(NC(=O)c2cnccn2)c1C,-0.8%
14,Nc1nonc1-c1nc2ccccc2[nH]1,11%
15,O=C(c1ccc([N+](=O)[O-])cc1Cl)N1CCC(Cc2ccccc2)CC1,-10.9%
16,CCn1c(C)nc2c(Br)c(O)ccc21,-13.1%
17,CCN1C(=O)/C(=C/c2ccc(-c3ccccc3[N+](=O)[O-])o2)SC1=S,0.8%
18,O=C(NNC(=O)c1cccc(Cl)c1)C(=O)N1CCCCC1,-11.5%
19,Cn1c(SCC(=O)N/N=C/c2ccco2)nc2ccccc21,-7.4%
20,N#CC1=C(N)Oc2c(sc3ccccc23)C1c1ccc(Br)o1 (stereo unspecified),11.8%
21,O=C1CC(N2CCSCC2)C(=O)N1c1ccc(F)cc1 (stereo unspecified),7.1%
22,Cn1c(=O)c2c(nc(NCCO)n2C)n(C)c1=O,0.2%

row,SMILES,displacement
1,COCCOC(=O)C1=C(C)NC(C)=C(C(=O)OCCOC)C1c1cn(-c2ccccc2)nc1-c1cccc([N+](=O)[O-])c1,5.4%
2,CCOc1cccc(C(=O)Nc2ccccc2-c2ccccc2)c1,3.2%
3,CN(C)c1ccc(/C=C/C(=O)/C=C/c2ccc(N(C)C)cc2)cc1,-13.3%
4,CCc1ccccc1NC(=O)CN(c1ccc(OC)cc1)S(C)(=O)=O,-0.6%
5,COc1cc(OC)c(C=C2C(=O)NC(=S)NC2=O)cc1Br,1.7%
6,COC(=O)c1c(NC(=O)c2cccc(C)c2)sc(Cc2ccccc2)c1C,-4.2%
7,CCOC(=O)C1=CS/C(=C2/C(=S)C(C)(C)Nc3ccc(C)cc32)S1,13%
8,Cc1cccc(-n2c(C)cc(/C=N/NC(N)=S)c2C)c1,-25.5%
9,Cc1cccc(N2C(=O)/C(=C/c3ccccc3[N+](=O)[O-])SC2=S)c1,9.9%
10,CCOc1ccccc1NC(=O)c1c(NC(=O)c2cccs2)sc2c1CCC2,3%
11,Cc1cc(C)n(/N=C/c2c[nH]c3ccccc23)c(=O)c1C#N,3%
12,CC(=O)N1CCN(c2ccc(NC(=O)c3ccc(Cl)cc3)cc2)CC1,11.6%
13,CCOC(=O)c1[nH]nc2c1C(=O)N(c1ccc(Br)cc1)C2=O,-7%
14,Cc1ccc(C(=O)Nc2nnc(C(C)C)s2)cc1,-4.7%
15,CC1CC(C)CN(C(=O)c2ccc(Cl)cc2)C1 (stereo unspecified),13.7%
16,C=CCNC(=O)Nc1ccc2nccnc2c1,8.7%
17,CCN(CC)S(=O)(=O)c1ccc(NC(=O)c2ccc(OC)c(I)c2)cc1,-12.2%
18,O=C1NC(c2ccc([N+](=O)[O-])cc2)Nc2c1sc(=S)n2-c1ccccc1 (stereo unspecified),7.7%
19,Cc1cccc(OCC(=O)O/N=C(\N)c2cccnc2)c1,4.1%
20,O=C(NCCO)C(=O)Nc1cccc(F)c1,3.4%
21,O=C(O)c1ccccc1NC1=C(Cl)C(=O)N(c2ccccc2Cl)C1=O,9.6%
22,CC(=O)Nc1ccc(N/C=C/C(=O)c2ccccc2)cc1,-2%

row,SMILES,displacement
1,CC(C)(C)c1ccc(S(=O)(=O)N/N=C/c2cc(Br)ccc2O)cc1,5.5%
2,CCOC(=O)c1c(C)[nH]c(=S)c(C#N)c1-c1ccccc1,0.9%
3,CCC(=O)c1ccc(N2CCN(S(=O)(=O)c3ccccc3)CC2)c(F)c1,2.4%
4,CCN(CC)CCn1c2ccccc2n2cc(-c3ccc(OC)cc3)nc12,-10.4%
5,N/C(=N\OC(=O)c1ccc(Cl)cc1Cl)c1ccc(Cl)cc1,-3.3%
6,CC(C)Oc1ccccc1-c1cc(C(=O)O)c2ccccc2n1,4.9%
7,Cc1ccccc1C(=O)NNC(=O)c1cccc(Br)c1,-12%
8,O=c1oc(-c2cccc(F)c2)nc2cc(Cc3ccc4c(=O)oc(-c5cccc(F)c5)nc4c3)ccc12,12.4%
9,CC(=O)Nc1ccc(N2C(=O)C3C4C=CC(CC4)C3C2=O)cc1 (stereo unspecified),-5.5%
10,O=C1NC(=S)N(c2cccc(Br)c2)C(=O)/C1=C/c1ccc(-c2ccc(C(=O)O)cc2)o1,-91.9%
11,COc1ccc(C(=O)N=Nc2c(O)n(CN(C)C)c3ccc(Br)cc23)cc1,-10.9%
12,CCOc1ccc(NC(=O)CC2SC(=Nc3ccccc3)N(c3ccccc3)C2=O)cc1 (stereo unspecified),0.7%
13,CCOC(=O)c1c(N)sc2c1CCc1ccccc1-2,4.3%
14,Cc1ccc(S(=O)(=O)Oc2ccc(/C=C3\SC(=S)NC3=O)cc2)cc1,-32.2%
15,CC(C)C12CC3CC(CC(C(=O)NN)(C3)C1)C2,8.7%
16,CC(C)c1ccccc1NC1=NS(=O)(=O)c2cc([N+](=O)[O-])ccc21,8.4%
17,O=C(Nc1cccc(O)c1)c1cccc(NC(=O)c2ccccc2-c2ccccc2C(=O)O)c1,-7.1%
18,COc1ccc2c(Cl)c(C(=O)N3CCN(CCN4C(=O)c5cccc6cccc(c56)C4=O)CC3)sc2c1,5.4%
